From publication PMC4336329 (PLoS ONE, 2015)
Hit rate of the full screen: of about 310,000 compounds, about 14,000 (4.5%) showed an effect of 50% or more. Effects have a minus sign here. The list shows a part of the results.

target: human ether-à-go-go-related gene (hERG) potassium channel (human, UniProt Q12809); assay: primary screen, population patch clamp on CHO cells stably expressing hERG
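Also: peak tail current of the secondary pulse compared with the same well before compound.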

Chain of human ether-à-go-go-related gene (hERG) potassium channel (Q12809 whole entry, looked up): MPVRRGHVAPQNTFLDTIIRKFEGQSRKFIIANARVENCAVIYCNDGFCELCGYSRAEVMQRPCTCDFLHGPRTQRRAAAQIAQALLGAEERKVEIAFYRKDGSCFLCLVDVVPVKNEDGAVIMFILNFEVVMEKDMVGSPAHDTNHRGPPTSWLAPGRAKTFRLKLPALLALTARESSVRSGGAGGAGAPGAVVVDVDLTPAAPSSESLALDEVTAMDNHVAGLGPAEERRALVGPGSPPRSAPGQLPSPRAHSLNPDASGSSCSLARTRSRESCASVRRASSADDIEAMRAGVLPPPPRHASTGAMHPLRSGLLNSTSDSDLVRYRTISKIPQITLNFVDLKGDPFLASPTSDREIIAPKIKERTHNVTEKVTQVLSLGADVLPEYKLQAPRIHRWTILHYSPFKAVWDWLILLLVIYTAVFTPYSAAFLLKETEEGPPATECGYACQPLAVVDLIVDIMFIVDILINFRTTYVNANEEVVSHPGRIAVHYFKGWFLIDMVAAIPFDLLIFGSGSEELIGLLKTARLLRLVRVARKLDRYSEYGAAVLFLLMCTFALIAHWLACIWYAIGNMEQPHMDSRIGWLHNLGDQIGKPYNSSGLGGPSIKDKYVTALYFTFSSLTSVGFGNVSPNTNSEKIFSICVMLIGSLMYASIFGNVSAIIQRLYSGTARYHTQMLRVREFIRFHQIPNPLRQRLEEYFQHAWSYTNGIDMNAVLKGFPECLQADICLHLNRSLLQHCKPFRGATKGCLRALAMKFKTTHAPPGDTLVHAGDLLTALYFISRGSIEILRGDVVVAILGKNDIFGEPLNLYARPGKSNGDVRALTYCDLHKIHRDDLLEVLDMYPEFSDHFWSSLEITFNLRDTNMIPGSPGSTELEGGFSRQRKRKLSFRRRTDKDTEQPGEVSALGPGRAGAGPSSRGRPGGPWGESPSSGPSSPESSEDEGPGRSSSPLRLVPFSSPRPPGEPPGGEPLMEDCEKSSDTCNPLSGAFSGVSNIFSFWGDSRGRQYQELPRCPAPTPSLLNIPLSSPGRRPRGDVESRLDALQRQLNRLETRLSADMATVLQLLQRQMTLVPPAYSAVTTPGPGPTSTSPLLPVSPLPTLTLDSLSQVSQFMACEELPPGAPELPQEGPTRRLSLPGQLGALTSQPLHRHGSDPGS

Row | SMILES | hERG current change (%, negative = inhibition) at 10uM [%]
1 | CCOC(=O)c1cnc(-n2nc(C)cc2C)nc1Nc1ccc(O)cc1 | 13
2 | NNC(=O)C(=O)NCCCN1CCOCC1 | 25.9
3 | CC(C)Oc1ccc(C2CCC(=O)NC2=O)cc1 (centres unmarked) | -12.8
4 | COc1ccc(CCNC(=O)CSc2ccc(-c3cccs3)nn2)cc1OC | -5.88
5 | COCCn1nnnc1C(c1ccccn1)N1CCN(c2cccc(C)c2C)CC1 (centres unmarked) | -4.23
6 | Cc1cc(C(=O)N2CCN(c3ccc(C(F)(F)F)cn3)CC2)c(C)o1 | -21.4
7 | CCOc1cccc(C(=O)NC(=S)NCc2cccnc2)c1 | -16.3
8 | CCn1nnnc1SCC(=O)c1cc(OC)ccc1OC | -11.7
9 | Clc1ccc(OCc2nn3c(-c4ccncc4)nnc3s2)cc1 | -38.9
10 | O=C(C1CCC1)N1CCc2cc(S(=O)(=O)NC3CCCC3)ccc21 | 4.18
11 | Cc1cccc(NC(=O)COC(=O)COc2ccc3c(c2)CCC3)c1 | -5.68
12 | CC(=O)Nc1ccc(S(=O)(=O)Oc2ccc(Br)cc2C(=S)N2CCOCC2)cc1 | -10.2
13 | Cc1sc2ncnc(SCC(=O)NC(C)(C)C)c2c1C | -2.48
14 | COc1ccccc1CNC(=O)[C@H](C)N1C(=O)N2CCc3c([nH]c4ccccc34)[C@@]2(C)C1=O | -49.2
15 | O=C1NC(=S)N/C1=C/c1cccc([N+](=O)[O-])c1 | 21.8
16 | Cl.O=S(=O)(N1CCCCCC1)N1CCNCC1 | 22.4
17 | CC(=O)c1c(C)[nH]c(C(=O)N2CCN(c3ccc(F)cc3)CC2)c1C | -20.7
18 | CS(=O)(=O)Nc1ccc(C(=O)NCCSc2ccc(Cl)cc2)cc1 | -47.3
19 | COc1ccc(S(=O)(=O)N2CCCCC2)cc1NC(=O)c1ccc2ccccc2n1 | 10.8
20 | CC1(C)CC(=O)C2=C(C1)Nc1cc(Cl)ccc1S2 | 13.3
21 | Cc1ccc(Cn2ncc3c(N4CCN(c5ccc(C)cc5)CC4)ncnc32)cc1 | 8.18
22 | Cn1c(=O)[nH]c(=O)c2c1nc1n2CCS1 | 1.6
23 | Cn1c(=O)c2c(nc(N/N=C/c3ccc(OC(=O)c4ccco4)cc3)n2Cc2ccccc2Cl)n(C)c1=O | 10.9

Row | SMILES | hERG current change (%, negative = inhibition) at 10uM [%]
24 | O=C(COc1cccc2ccccc12)NNC(=O)c1cnccn1 | 10.5
25 | CCOc1ccc2[nH]cc(S(=O)(=O)c3ccc(Cl)cc3)c(=O)c2c1 | 13.6
26 | CCC(C)N1CC23C=CC(O2)C(C(=O)OCc2ccccc2)C3C1=O (centres unmarked) | 5.54
27 | CN(CC(=O)Nc1ccccc1C(F)(F)F)C(=O)CCc1nc2ccccc2c(=O)[nH]1 | -13.3
28 | CN(C)S(=O)(=O)c1ccc(C(=O)OCc2nnc(-c3ccccc3)o2)cc1 | 3.3
29 | CCC(=O)Nc1ccc(S(=O)(=O)N2CCCCC2)cc1OC | 0.654
30 | CC(=O)c1cn(C)c(=O)c2ccccc12 | 7.45
31 | Cc1cc(C)c(C(=O)Cn2nc(C(=O)O)c3ccccc3c2=O)cc1C | 24.5
32 | Cc1noc(NS(=O)(=O)c2ccc(NC(=O)COc3ccc(Cl)cc3Cl)cc2)c1C | -21.4
33 | COC1=C(c2ccccc2)C(=O)c2ccccc2C1=O | -14.1
34 | c1ccc(-c2ccnc3ncnn23)nc1 | 16.2
35 | CN(CC(=O)Nc1ccc(Cl)c(C(F)(F)F)c1)C(=O)CC1Sc2ccccc2NC1=O (centres unmarked) | -2.38
36 | COc1cccc(-n2c(COc3ccc(C)cc3)nnc2SCC(N)=O)c1 | -2.86
37 | O=C1CC(c2ccccc2)Oc2cc(O)cc(O)c21 (centres unmarked) | 1.83
38 | Cc1nn(CC(=O)Nc2ccc(S(N)(=O)=O)cc2)c(=O)c2ccccc12 | 10.5
39 | Cc1ccc(-n2[nH]c(=O)c(-c3ccccn3)c2C)cc1 | 12.6
40 | COc1ccc(Cl)cc1NC(=O)CN(C)C(=O)c1cc(C)oc1C | -17.7
41 | CCOc1cc(CNCC2CCCN2CC)cc(Cl)c1OC.Cl (centres unmarked) | -18
42 | O=c1oc(-c2cccc([N+](=O)[O-])c2)nc2ccccc12 | 16.8
43 | COc1ccc2nc(N=Nc3ccc(O)c4ccccc34)sc2c1 | -5.2
44 | CC1(C)C(C=C(Cl)Cl)C1C(=O)NC(O)C(=O)c1ccccc1 (centres unmarked) | 17.3
45 | Cc1ccc(/C=N/NC(=S)NC2CCS(=O)(=O)C2)cc1 (centres unmarked) | -0.705
46 | C/C(=N\Nc1nccnc1Cl)c1ccc(O)cc1 | 17.7

Row | SMILES | hERG current change (%, negative = inhibition) at 10uM [%]
47 | Cc1ccc(CNC(=O)C2CC(c3ccccc3[N+](=O)[O-])=NO2)o1 (centres unmarked) | -9.83
48 | COCC(C)NC(=S)NC(=O)c1cc(S(=O)(=O)N2CCOCC2)ccc1C (centres unmarked) | 5.17
49 | CCOc1ccc(S(=O)(=O)N(C)CC(=O)NC2CCCC2)cc1 | 1.6
50 | CC(c1ccco1)N(C(=O)Nc1ccc(Cl)cc1)c1ccccn1 (centres unmarked) | -11.6
51 | C/C(N)=C(/C#N)C(=O)COC(=O)CCSc1ccccc1Cl | 6.29
52 | COc1ccc(CCN2C(=O)C3C4CC(C5C(C(=O)O)=NOC45)C3C2=O)cc1OC (centres unmarked) | 15.4
53 | CCOC(=O)Cn1c(=O)c(-c2ccccc2NCc2ccccc2)nc2ccccc21 | 14.5
54 | CC(OC(=O)/C=C/c1cccs1)C(=O)Nc1ccc(C(N)=O)cc1 (centres unmarked) | 8.48
55 | CN1CCc2nc(NC(=O)c3cccc(S(=O)(=O)N4CCc5ccccc54)c3)sc2C1 | -0.592
56 | C=CCNC(=S)NNC(=O)COc1cccc(Cl)c1 | 4.69
57 | COc1ccc2nc(NC(=O)C3CCN(C(=O)c4ccc(F)cc4)CC3)sc2c1 | -0.23
58 | CCC(=O)Nc1cccc(C2=NOC3(C2)C[C@H](C(N)=O)N(C(=O)CC#N)C3)c1 (some centres unmarked) | -0.286
59 | CCCCCn1nc(C(=O)N(CC(C)C)c2c(N)n(CCCC)c(=O)[nH]c2=O)c2ccccc2c1=O | -76.6
60 | COc1ccccc1CNC(=O)COC(=O)c1sc(C)nc1C | -10.2
61 | CC1CCN(S(=O)(=O)c2ccc(NC(=O)[C@@H]3CCCN3C(=O)c3cccs3)cc2)CC1 | -15.4
62 | COCCN1C=C(C(=O)OC)C(c2ccc(OC)c(OC)c2)C(C(=O)OC)=C1 | -9.39
63 | CCC(C)c1ccc(NC(=O)c2cnn3c(C(F)F)cc(C)nc23)cc1 (centres unmarked) | 0.56
64 | Cc1ccc(-c2ccc(C(=O)NCc3ccccc3)o2)c2ccccc12 | 2.23
65 | COC(=O)c1cc2occc2n1Cc1nc(-c2cccc(Cl)c2)oc1C | 12.6
66 | Cc1nc2cc(NC(=O)N3CCCC3)ccc2n1C | -1.21
67 | COc1ccc(C(CNC(=O)COc2ccccc2)N2CCOCC2)cc1 (centres unmarked) | 5.9
68 | Cn1cnnc1SCC(=O)Nc1cccc(S(=O)(=O)N2CCCCCC2)c1 | -17.4
69 | O=C(/C=N/O)NCCN1CCCCC1 | 11.5

Row | SMILES | hERG current change (%, negative = inhibition) at 10uM [%]
70 | O=C(Cn1c(CO)nc2ccccc21)Nc1cc(C(F)(F)F)ccc1N1CCOCC1 | 1.37
71 | CC(Oc1cccc2ccccc12)C(=O)N/N=C/c1cccnc1 (centres unmarked) | -14.9
72 | CNC(=O)CC(C(=O)O)c1ccc(OC(C)C)cc1 (centres unmarked) | -1.5
73 | O=C(O)CCCCCCCCc1cn(CC2CCCCC2)nn1 | 7.45
74 | CN=c1sc(C(=O)Nc2ccccc2)c(C)n1C | 8.4
75 | C=CCNC(=S)NNC(=O)C(CCCC)CC(O)COCC(C)C (centres unmarked) | -0.671
76 | CCn1ccnc1CN(C)C(=O)C1CCC(=O)N(Cc2cccc(C(F)(F)F)c2)C1 (centres unmarked) | -22.8
77 | COc1ccc(C(=O)OCC(=O)c2ccc(C3CCCCC3)cc2)cc1 | 5.66
78 | COc1ccc(CCNC(=O)c2ccc(NS(=O)(=O)c3ccc4[nH]c(=O)[nH]c4c3)cc2)cc1OC | 11.7
79 | O=C(C1CCCN(S(=O)(=O)c2cccc3nonc23)C1)N1CCN(c2cccc(Cl)c2)CC1 (centres unmarked) | -8.39
80 | O=C1NC(=O)C(CCc2ccncc2)(Cc2cccc(Cl)c2Cl)C(=O)N1c1ccc(Br)cc1 (centres unmarked) | -11
81 | CS(=O)(=O)N(CC(=O)NCc1ccccc1)c1ccc(Cl)cc1 | 7.66
82 | CCOC(=O)c1nn(-c2ccc(Br)cc2)cc1C(=O)c1cccc2ccccc12 | 14.8
83 | CCOC(=O)[C@H]1[C@H]2COc3ccc(Cl)cc3[C@@H]2N2C(=O)c3cc(Cl)ccc3NC(=O)[C@@]12C | 3.59
84 | CC(C)c1ccc(CNc2nnnn2C)cc1 | -0.457
85 | CCn1c(NC(=O)c2ccccc2)nc2ccccc21 | 4.47
86 | Cc1ccc2c(c1)c(C)c(C)n2CC(O)CN1CCOCC1.Cl (centres unmarked) | 0.437
87 | CC(=N)c1c(O)c2ccccc2oc1=O | 10.5
88 | CCN1CCN(C(=O)C2CCCN(c3ncnc4c3nc3n4CCCCC3)C2)CC1 (centres unmarked) | 11.6
89 | Cc1nnc(SCc2c(Cl)cccc2[N+](=O)[O-])s1 | -12.1
